# Structures can show the parent of a compound that is named as a salt. ± gives the standard deviation of the averaged measurements. This is one part of the list. Repeats are few or missing, and single values can be far off.
# Legend:
# Experiment in all cases: log2 surviving fraction relative to plate median (drug vs vehicle, or drug+dl922-947 vs dl922-947 alone); ovarian cancer lines: OVCAR4 is platinum-sensitive while Ov4Cis resists cisplatin and Ov4Carbo carboplatin; higher = more cell survival
# Conditions in all cases: compound concentration: 10 uM, 192 h
# [1] = test system: OVCAR4
# [2] = test system: Ov4Carbo
# [3] = test system: Ov4Cis
# [4] = dl922-947 oncolytic adenovirus co-treatment: MOI 10
# [5] = dl922-947 oncolytic adenovirus co-treatment: none
Compound,"log2 surviving fraction [1, 4]","log2 surviving fraction [1, 5]","log2 surviving fraction [2, 4]","log2 surviving fraction [2, 5]","log2 surviving fraction [3, 4]","log2 surviving fraction [3, 5]"
CO/N=C(\C(=O)N[C@@H]1C(=O)N2C(C(=O)O)=C(Cn3ccc(=N)n3CCO)CS[C@H]12)c1csc(N)n1 [Cefoselis sulfate],-0.379 ± 0.25,-0.0936 ± 0.32,0.367,0.0679,-0.073,-0.0678
CC(C)[N+]1(C)[C@@H]2CC[C@H]1C[C@@H](OC(=O)C(CO)c1ccccc1)C2 (stereo partly drawn) [Ipratropium bromide],0.224 ± 0.56,-0.0724 ± 0.029,-0.0502,-0.504,-0.455,0.296
CCCCNc1ccc(C(=O)OCCN(C)C)cc1 [Tetracaine hydrochloride (Pontocaine)],0.294 ± 0.23,0.318 ± 1.2,-0.396,1.02,-0.673,0.0555
COc1nc(C)nc(Cl)c1NC1=NCCN1 [Moxonidine],0.588 ± 0.38,0.271 ± 0.63,-1.59,-0.457,-0.425,-0.15
CCCCCCCCCCCC[N+](C)(C)CCOc1ccccc1 [Domiphen Bromide],-9.96 ± 0.97,-11.7 ± 6.4,-8.34,-11.4,-8.81,-15.3
Cc1nc2c([nH]1)-c1ccccc1N(C(=O)c1ccc(NC(=O)c3ccccc3-c3ccccc3)cc1)CC2 [Conivaptan HCl (Vaprisol)],-1.42 ± 0.49,-1.54 ± 0.14,-1.2,-2.58,-1.58,-0.677
Clc1ccc(C(Cn2ccnc2)OCc2c(Cl)cccc2Cl)c(Cl)c1 (stereo not drawn) [Isoconazole nitrate (Travogen)],-1.16 ± 0.17,-3.01 ± 0.4,-0.911,-3.68,-1.5,-0.701
CN1CCc2cc3c(cc2C1O)OCO3 (stereo not drawn) [Hydrastinine HCl],0.697 ± 0.51,-0.23 ± 0.73,-1.86,0.778,0.0503,1.16
CN(C)CCCN1c2ccccc2Sc2ccc(Cl)cc21 [Chlorpromazine (Sonazine)],-1.81 ± 0.74,-1.68 ± 0.063,-3.21,-0.711,-3.18,-1.34
CCCCCN(C)CCC(O)(P(=O)(O)O)P(=O)(O)O [Ibandronate sodium],-0.243 ± 0.026,-1.6 ± 1.4,0.443,-1.69,-1.03,-0.457
CN(C)C(=O)C(CCN1CCC(O)(c2ccc(Cl)cc2)CC1)(c1ccccc1)c1ccccc1 [Loperamide hydrochloride],-3.34 ± 2.6,-3.76 ± 0.22,-4.84,-7.27,-4.62,-4.89
CC1COc2c(N3CCN(C)CC3)c(F)cc3c(=O)c(C(=O)O)cn1c23 (stereo not drawn) [Ofloxacin (Floxin)],1.11 ± 0.37,0.142 ± 0.2,0.638,0.552,0.237,0.942
CNC[C@H](O)c1cccc(O)c1 [Phenylephrine HCl],0.33 ± 0.043,-0.221 ± 1,0.219,0.259,-1.36,0.473
COCCc1ccc(OCC(O)CNC(C)C)cc1 (stereo not drawn) [Metoprolol tartrate],0.691 ± 1.4,-0.279 ± 1.1,-0.235,-1.03,-0.189,-0.353
Cc1c(O)c(=O)ccn1C [Deferiprone],0.0222 ± 0.026,0.00479 ± 0.71,0.776,0.0905,0.101,0.0939
CCN(CC)C(=S)SSC(=S)N(CC)CC [Disulfiram (Antabuse)],-8 ± 0.33,-8.32 ± 4,-6.11,-8.91,-8.53,-12.2
Cc1cccc(Nc2ccccc2C(=O)O)c1C [Mefenamic acid],-0.393 ± 0.13,-0.269 ± 0.59,0.16,-0.222,0.115,0.282
CCn1cc(C(=O)O)c(=O)c2cc(F)c(N3CCN(C)CC3)cc21 [Pefloxacin mesylate],-0.123 ± 1.2,-0.552 ± 0.19,-0.432,0.826,-1.25,0.217
C[C@]12CC[C@@H]3c4ccc(O)cc4C[C@@H](CCCCCCCCC[S+]([O-])CCCC(F)(F)C(F)(F)F)[C@H]3[C@@H]1CC[C@@H]2O (stereo partly drawn) [Fulvestrant (Faslodex)],0.186 ± 0.69,1.62 ± 1.7,-1.37,0.344,0.16,-0.0214

Compound,"log2 surviving fraction [1, 4]","log2 surviving fraction [1, 5]","log2 surviving fraction [2, 4]","log2 surviving fraction [2, 5]","log2 surviving fraction [3, 4]","log2 surviving fraction [3, 5]"
CO[C@@H]1[C@@H](OC(N)=O)[C@@H](O)[C@H](Oc2ccc3c(O)c(NC(=O)c4ccc(O)c(CC=C(C)C)c4)c(=O)oc3c2C)OC1(C)C [Novobiocin sodium (Albamycin)],0.799 ± 0.15,0.427 ± 0.55,0.585,0.574,0.211,0.39
O=C(Nc1ccc([N+](=O)[O-])cc1Cl)c1cc(Cl)ccc1O [Niclosamide (Niclocide)],-8.13 ± 0.23,-9.74 ± 5.5,-6.52,-10.6,-6.27,-12.8
Cc1ccccc1C(OCCN(C)C)c1ccccc1 (stereo not drawn) [Orphenadrine citrate (Norflex)],-0.594 ± 0.55,0.3 ± 0.86,-0.962,0.254,-0.303,0.947
Oc1ccc(OC2CCCCO2)cc1 (stereo not drawn) [Deoxyarbutin],-1.13 ± 0.029,-2.17 ± 0.56,-2.85,-3.05,-4.62,-0.267
C[C@@H]1[C@H](O)[C@@H](C)/C=C/C=C/C=C/C=C/C=C/C=C/C=C/[C@H](O[C@@H]2O[C@H](C)[C@@H](O)[C@H](N)[C@@H]2O)C[C@@H]2O[C@](O)(C[C@@H](O)C[C@@H](O)[C@H](O)CC[C@@H](O)C[C@@H](O)CC(=O)O[C@H]1C)C[C@H](O)[C@H]2C(=O)O [Amphotericin B (Abelcet)],-1.02 ± 1.1,-0.0423 ± 0.48,0.132,0.146,-0.346,-0.085
COc1cccc2c1C(=O)c1c(O)c3c(c(O)c1C2=O)C[C@@](O)(C(C)=O)C[C@@H]3O[C@H]1C[C@H](N)[C@H](O)[C@H](C)O1 [Daunorubicin HCl (Daunomycin HCl)],-10.9 ± 0.82,-12 ± 6.2,-9.38,-12.7,-10.3,-15.9
Clc1ccc(COC(Cn2ccnc2)c2ccc(Cl)cc2Cl)c(Cl)c1 (stereo not drawn) [Miconazole (Monistat)],-3.73 ± 3.1,-4.57 ± 3,-6.2,-11.4,-2.34,-2.04
O=C(Nc1ccccc1)c1ccccc1O [Salicylanilide],-0.0641 ± 0.17,-0.865 ± 0.68,-0.484,-0.174,0.824,-1.3
CC(C)Cc1ccc(C(C)C(=O)O)cc1 (stereo not drawn) [Ibuprofen (Advil)],0.7 ± 0.19,0.467 ± 0.56,-0.299,0.143,0.23,0.997
CN(C)C/C=C/C(=O)Nc1cc2c(Nc3ccc(F)c(Cl)c3)ncnc2cc1O[C@H]1CCOC1 [Afatinib (BIBW2992)],-3.07 ± 3.1,-10.8 ± 5,-7.87,-14.3,-4.26,-11.8
CN1CCOC(c2ccccc2)c2ccccc2C1 (stereo not drawn) [Nefopam HCl],-0.098 ± 0.73,0.415 ± 0.47,0.537,0.579,0.343,-0.0138
Cc1cccc(Cc2c[nH]cn2)c1C [Detomidine HCl],0.113 ± 0.12,0.361 ± 0.12,-1.04,0.0121,-0.0388,0.141
CCOc1cc(CC(=O)N[C@@H](CC(C)C)c2ccccc2N2CCCCC2)ccc1C(=O)O [Repaglinide],1.05 ± 0.27,-0.162 ± 1.5,-0.24,2.43,1.32,0.773
Cc1cc(C(C)(C)C)cc(C)c1CC1=NCCN1 [Xylometazoline HCl],0.686 ± 0.9,-0.657 ± 2.1,1.05,0.987,-0.569,0.556
CCCc1nc(C(C)(C)O)c(C(=O)OCc2oc(=O)oc2C)n1Cc1ccc(-c2ccccc2-c2nnn[nH]2)cc1 [Olmesartan medoxomil (Benicar)],0.538 ± 0.0054,0.0881 ± 0.32,1.86,0.692,0.00538,0.113
C#CCN(C)CCCOc1ccc(Cl)cc1Cl [Clorgyline HCl],-0.0128 ± 0.29,-0.476 ± 0.14,0.832,0.194,0.454,0.164
COc1cc2c(cc1OC)CC(=O)N(CCCN(C)C[C@H]1Cc3cc(OC)c(OC)cc31)CC2 [Ivabradine HCl (Procoralan)],-0.186 ± 0.72,0.0385 ± 0.54,-0.601,-1.03,0.93,0.397
CC1=C(CC(=O)O)c2cc(F)ccc2/C1=C\c1ccc([S+](C)[O-])cc1 (stereo not drawn) [Sulindac (Clinoril)],-0.738 ± 0.23,-1.21 ± 0.17,-0.316,-0.802,-0.212,-0.828
CO[C@H]1C(=O)[C@]2(C)[C@@H](OC)C[C@H]3OC[C@@]3(OC(C)=O)[C@H]2[C@H](OC(=O)c2ccccc2)[C@]2(O)C[C@H](OC(=O)[C@H](O)[C@@H](NC(=O)OC(C)(C)C)c3ccccc3)C(C)=C1C2(C)C [Cabazitaxel (Jevtana)],-5.26 ± 0.42,-7.01 ± 3.2,-3.97,-6.61,-4.54,-6.57

# Source: the supplement of paper PMC8813932
